Experimental data published in the supplement of paper PMC10986608.
The other results are listed elsewhere or left out. Single values are uncertain, as repeats are few or missing.

tested on: Candida albicans DPL-15; assay: growth (OD600) after compound treatment (apparently relative to screen median) (relative growth (fraction; screen median 1.02)); DPL-15 is a caspofungin-resistant clinical isolate; higher = more fungal growth (less antifungal activity); conditions: 25 µM; RPMI 1640; 48 h; 30 °C

| SMILES | growth |
| --- | --- |
| CCC[C@@H](O)COc1cc2c(cc1C1(c3cc4c(cc3OC[C@H](O)CCC)OCO4)C(=O)Nc3cc(Br)ccc31)OCO2 | 1.07 |
| COC(=O)c1cc(CCCC(=O)NCc2ccc(OC)cc2)c(C(=O)OC)nn1 | 1.07 |
| CC(=O)Oc1cc(O)c2c(C)cc(O)c3c2c1COC3=O | 1.02 |
| COc1ccc(N2C(=O)C3=C(C(C(C)C)=NCC(C)(C)N3)C2c2cccc(C(F)(F)F)c2)cc1 (stereo unspecified) | 1.05 |
| CC(C)C(=O)C1CC2(CCCCC2)OC2=C1C(=O)C(C)(C)C(=O)C2(C)C (stereo unspecified) | 0.996 |
| COC(=O)C/C=C/[C@H](C)[C@H](NC(=O)C(F)(F)F)C1CC1 | 0.974 |
| CC(C)=CCc1cc(OCc2nn[nH]n2)cc2oc3cccc(O)c3c(=O)c12 | 1.01 |
| COC(=O)C1=C(C)N(CCc2cccs2)C(NCCc2cccs2)=NC1c1ccccc1 (stereo unspecified) | 1.15 |
| C[C@H]1COc2c(N3CCN(C)CC3)c(F)cc3c(=O)c(C(=O)NCc4ccco4)cn1c23 | 0.935 |
| Cc1ccccc1S(=O)(=O)N1CCCc2nc(C)c(C)cc21 | 0.982 |
| CO[C@@H]1[C@H](O)CC[C@]2(O)CN(C3CCN(Cc4ccccc4)CC3)[C@@H](CC=C(C)C)[C@](C)(O)[C@@H]12 | 1.31 |
| COC1=C2C(=O)c3c(O)cc(C)cc3O[C@@]2(C)[C@H](O)CC1 | 1.13 |
| CC(C)C(=O)Cc1cc(O)cc(O)c1C(=O)N(C)Cc1ccccc1 | 1.07 |
| COC(=O)c1nnc(C(C)=O)c2c3ccccc3n(Cc3ccccc3)c12 | 1.08 |
| CC(C)Cc1n[nH]c2c1C(c1ccc(F)cc1)N(c1ccc(S(N)(=O)=O)cc1)C2=O (stereo unspecified) | 1.12 |
| C[C@@H]1C=CCCO[C@]12C(=O)N(CC1CC1)c1cccc(Br)c12 | 1.02 |
| COc1ccc([C@]23Oc4cc(OC)cc(OC)c4[C@@]2(O)c2nc(-c4cccc(OC)c4)[nH]c(=O)c2[C@@H]3c2ccccc2)cc1 | 0.883 |
| CC(=O)O[C@@H]1C=C[C@@H](C#Cc2ccc(C(C)(C)C)cc2)O[C@@H]1COC(=O)Nc1ccccc1 | 1.03 |
| Cc1ccc(C2NC(=O)c3nn(C)c(C(C)C)c32)cc1 (stereo unspecified) | 1.12 |
| COc1cccc(Oc2cc(Cl)ccc2C(=O)O)c1OCc1ccccc1 | 0.977 |
| OC[C@H]1O[C@H](c2ccccc2)C=C[C@@H]1OCc1cccc(Br)c1 | 1.09 |

| SMILES | growth |
| --- | --- |
| COC(=O)N1C(c2ccccc2)=Cc2ccccc2C1CC(C)=O (stereo unspecified) | 1.04 |
| CCCc1ccc(C(=O)[C@H]2[C@@H](O)[C@@]3(O)c4c(OC)cc(OC)cc4O[C@@]3(c3ccc(OC)cc3)[C@@H]2c2ccccc2)o1 | 1.02 |
| COc1ccccc1Cn1nc(C)c2c1C(=O)NC2c1ccc2c(c1)OCO2 (stereo unspecified) | 0.852 |
| C#Cc1cc(OC)cc(OC)c1-c1cc(OC)ccc1OS(=O)(=O)C(F)(F)F | 1.1 |
| COc1cccc(C2NC(=S)N(Cc3ccc(F)cc3)C(C)=C2C(C)=O)c1 (stereo unspecified) | 1.05 |
| CC1(C)CNC(=O)[C@@H]2C[C@@H](O)CN2C(=O)c2cccc(c2)-c2[nH]ncc2C1 | 1.26 |
| COc1ccc(N2C(=O)c3[nH]nc(CC(C)C)c3C2c2ccc(F)c(C)n2)cc1 (stereo unspecified) | 1.23 |
| COC(=O)Cc1nnn2c1[C@H](C)[C@@H](OC)c1ccccc1-2 | 0.985 |
| CCCCCNS(N)(=O)=O | 1.22 |
| COC(=O)[C@@]12Oc3cccc(O)c3C(=O)C1=C(OC)CC[C@H]2O | 1.05 |
| COc1cccc(C(CC2=CCCCC2)NC(=O)C(F)(F)F)c1 (stereo unspecified) | 0.994 |
| COc1ccc(N2C(=O)C3=C(C(c4ccccc4)=NCC(C)(C)N3)C2c2cccc(C(F)(F)F)c2)cc1 (stereo unspecified) | 1.03 |
| Cc1ccc(C2c3c(CC(C)C)nn(C)c3C(=O)N2Cc2ccccc2)cc1 (stereo unspecified) | 0.966 |
| CCCC#Cc1c(OC)ccc(OC)c1C(=O)NC | 1.24 |
| COc1ccc(N2C(=O)C3=C(C(CC(C)C)=NCCN3C)C2c2ccc(Br)cc2)cc1 (stereo unspecified) | 0.994 |
| CCN(CC)CCCN1C[C@@]2(O)CC[C@@H](O)[C@@H](OC)[C@@H]2[C@@](C)(O)[C@@H]1CC=C(C)C | 1.12 |
| CC1=C[C@H]2c3c(c(O)c(O)c4oc5ccccc5c(=O)c34)[C@H](c3cc(O)c(O)c4oc5ccccc5c(=O)c34)[C@H]2C(C)(C)C1 | active: 0.0836 |
| COc1ccc(C(=O)Nc2ccc(CCN3CCc4cc(OC)c(OC)cc4C3)cc2)c([N+](=O)[O-])c1 | 1.08 |
| Cc1ccc(S(=O)(=O)N2CCCc3nc(-c4ccccc4)ccc32)cc1 | 0.967 |
| COc1cc(OC)c2c(=O)c(O)c(-c3ccc(Br)cc3)n(C)c2c1 | active: 0.0563 |
| COCc1n[nH]c2c1C(c1ccc3c(c1)OCO3)N(Cc1ccccc1)C2=O (stereo unspecified) | 0.901 |

| SMILES | growth |
| --- | --- |
| COc1ccc(-c2c(O)c(=O)c3c(OC)cccc3n2C)cc1 | 0.414 |
| CCc1cc2c(nc1CC)CCCN2S(=O)(=O)c1ccccc1C | 0.99 |
| COC(=O)N[C@@H](c1ccco1)C(C(C)=O)C(=O)OC (stereo partly specified) | 0.978 |
| COC(=O)[C@]1([C@H]2CCC(=O)O2)CC(=O)c2c(OC)cccc2O1 | 1.08 |
| CC(=O)OC[C@]12CC[C@@H](C(C)=O)[C@@H]1[C@H]1CC[C@@H]3[C@@]4(C)CC[C@@H](O)[C@@](C)(O)[C@@H]4CC[C@@]3(C)[C@]1(C)CC2 | 0.887 |
| CC(C)CC1=NCCNC2=C1C(c1ccc(F)cc1)NC2=O (stereo unspecified) | 1.1 |
| COC(=O)C1=C(C)N(Cc2ccccc2C(F)(F)F)C(NCc2ccccc2)=NC1c1cccc(Cl)c1 (stereo unspecified) | 0.819 |
| CC(C)(C)C1=C[C@H]2[C@H]3C(=O)C(c4ccc(O)cc4)=C[C@@]3(c3ccc(O)cc3)[C@@H]1C(=O)[C@]2(C)O | 1.05 |
| COc1ccc(-c2oc(-c3ccc4c(c3)OCO4)c(C)c2C)cc1OC | 1.1 |
| COC(=O)C1=C(C)NC(=O)NC1c1cccc(C)c1 (stereo unspecified) | 1.07 |
| CCCN1C(NCC2CCCCC2)=NC(c2ccc(F)cc2)C(C(=O)OC)=C1C (stereo unspecified) | 1.17 |
| CCN1C(=O)N[C@@H](c2cccc(C(F)(F)F)c2)[C@@H](C(=O)OC)[C@H]1C | 0.95 |
| CC(C)Cc1nn(-c2ccc(OC(F)(F)F)cc2)c2c1C(c1ccc3c(c1)OCO3)NC2=O (stereo unspecified) | 1.1 |
| O=C(/C=C/c1ccc2c(c1)OCO2)c1ccccc1 | 0.934 |
| COCOc1ccc(OC)cc1C(=O)/C=C/c1ccc(OC)c(Br)c1 | 0.902 |
| O=C(/C=C(O)/C=C/c1ccc(Br)cc1)/C=C/c1ccc(Br)cc1 | 0.232 |
| COC(=O)C1=C(C)N(Cc2ccc(F)cc2)C(=S)NC1c1ccccc1 (stereo unspecified) | 0.974 |
| COc1ccc([C@@]23Oc4cc(OC)cc(OC)c4[C@]2(O)[C@H](O)[C@H](C(=O)c2ccco2)[C@H]3c2ccc(O)cc2)cc1 | 0.842 |
| C=CCN1C(=O)[C@@]2(CC(C)=C[C@@H](COc3ccccc3)O2)c2ccccc21 | 1.03 |
| COc1cc(O)cc2c1[C@]1(O)[C@H](O)C[C@@H](c3ccccc3)[C@]1(c1ccc(Br)cc1)O2 | 1.1 |
| CCOC(=O)C1=C(C)NC(=O)NC1c1ccc(C(F)(F)F)cc1 (stereo unspecified) | 1.05 |

| SMILES | growth |
| --- | --- |
| O=c1c(O)c(-c2ccc(Br)cc2)oc2cc(F)cc(OCC(F)(F)F)c12 | 1.06 |
| COC(=O)C1=C(C)N(Cc2ccccc2)C(=S)NC1c1cccc(OC)c1 (stereo unspecified) | 0.812 |
| COc1cccc(CO[C@H]2C=C[C@@H](c3ccccc3)O[C@@H]2CBr)c1 | 1.26 |
| CS(=O)(=O)Oc1c(CC23CCCC2=Nc2ccccc23)occc1=O (stereo unspecified) | 1.25 |
| CO[C@@H]1[C@H](O)CC[C@]2(O)CN(c3cccc(C#N)c3)[C@](C)([C@H](O)CC=C(C)C)[C@@H]12 | 0.896 |
| COc1ccc(N2C(=O)c3[nH]nc(-c4ccc(Cl)cc4Cl)c3C2c2ccc(F)cc2)cc1 (stereo unspecified) | 1.05 |
| COc1ccc(N2C(=O)c3nn(C)c(C(C)C)c3C2c2ccc(F)cc2)cc1 (stereo unspecified) | 0.959 |
| c1ccc(-c2cc3c(nc2-c2ccccc2)CCCC3)cc1 | 1.04 |
| CCCCNC1=NC(c2ccc(Cl)cc2)C(C(=O)OC)=C(C)N1Cc1cccc(C(F)(F)F)c1 (stereo unspecified) | 0.715 |
| COC(=O)C1=C(C)N(Cc2ccccc2)C(=O)N[C@H]1c1cccs1 | 0.845 |
| Cc1ccc(C2C3=C(C(=O)N2Cc2ccccc2)N(C)CCN=C3CC(C)C)cc1 (stereo unspecified) | 0.944 |
| COC(=O)C1=C(C)N(CCc2cccs2)C(NCc2ccc(C(F)(F)F)cc2)=NC1c1ccc(C)cc1 (stereo unspecified) | 0.854 |
| O=C1c2[nH]nc(-c3ccccc3)c2C(c2cccc(C(F)(F)F)c2)N1c1ccccc1 (stereo unspecified) | 0.961 |
| C=C1CC[C@H]2[C@H]3C4=C(O[C@@]3(C(C)C)O[C@]2(C)CC[C@@H]2[C@@H]1CC2(C)C)C(C)(C)C(=O)C(C)(C)C4=O | 1.04 |
| Clc1ccnc(CCCc2ccccc2)c1 | 1.09 |
| CC(C)(C)[Si](C)(C)O[C@H]1C=C(CO)[C@H](O)[C@H]2O[C@H]21 | 0.933 |
| COC(=O)N(/C=C/c1ccc(OC)cc1)CCc1ccc(OC)c(OC)c1 | 1.25 |
| CC(C)Cc1n[nH]c2c1C(c1ccc(F)cc1)N(CCN1CCCC1)C2=O (stereo unspecified) | 1.08 |
